{"source": "PubChem BioAssay AID743279", "about": "(National Center for Advancing Translational Sciences (NCATS), 2014)", "note": "In all, about 360,000 compounds went through this assay and about 17,000 (4.7%) were called active. Inconclusive results, whose numbers are uncertain, are shown with a selection of clear calls. No stated cut-off is given here; in the data, active means activity change below about -50%; inconclusive means mostly about -30% to -49%; inactive means weaker than that. On the % scale 0 is the no-effect control and ±100 the full control effect."}
{"experiment": "qHTS for Inhibitors of Inflammasome Signaling: IL-1-beta AlphaLISA Primary Screen", "details": "THP-1 LPS/ATP IL-1B secretion, 16 h; at 57.5 µM, active compounds read low", "in_short": "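THP-1 cells pretreated 1 hr with compounds (up to 57.5 uM final), then stimulated with LPS (250 ng/mL final) plus ATP (1.25 mM final); secreted IL-1B measured by AlphaLISA after 16 hr, decreased signal indicating inhibition.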"}
{"smiles": "CCn1c(C)nc2cc(C(=O)NN=C(C)c3ccc(C#N)cc3)ccc21", "activity change": "inactive: -3.92%"}
{"smiles": "CC1=NNC(=O)C1Oc1ccccc1", "note": "(stereo not drawn)", "activity change": "inactive: 12.7%"}
{"smiles": "O=C(N/N=C/c1ccc(OC(=O)c2ccccc2Cl)cc1)c1ccccn1", "activity change": "inactive: 6.94%"}
{"smiles": "COc1cccc(OC)c1C(=O)NCCN1CCN(C(=O)c2c(OC)cccc2OC)CC1", "activity change": "inactive: -14.8%"}
{"smiles": "CCn1cc(CN2CCN(Cc3ccsc3)C(CCO)C2)cn1", "note": "(stereo not drawn)", "activity change": "inconclusive: -39.1%"}
{"smiles": "Cc1cccc2cc3c(N)c(C(=O)Nc4ccc(N5CCOCC5)cc4)sc3nc12", "activity change": "active: -60%"}
{"smiles": "CC(C)(C)NC(=O)CN(C(=O)CSc1nnc(COc2ccccc2)o1)c1cccc(F)c1", "activity change": "inconclusive: -33.6%"}
{"smiles": "CC(=O)Cn1nnc2sc3c(c2c1=O)CCC(C(C)(C)C)C3", "note": "(stereo not drawn)", "activity change": "inconclusive: -38.1%"}
{"smiles": "Cc1ccc(C)c(C(=O)Cn2ncc(Cl)c(Cl)c2=O)c1", "activity change": "active: -104%"}
{"smiles": "CCn1c(CNc2ccc(Cl)cc2)nnc1SCc1ccccc1", "activity change": "active: -76.4%"}
{"smiles": "COc1ccc(-c2cc(=O)oc3c(C)c(OC(C)C(C)=O)ccc23)cc1", "note": "(stereo not drawn)", "activity change": "inconclusive: -34.7%"}
{"smiles": "Fc1ccc(-[n+]2nc(Nc3ccccc3)sc2-c2c(Cl)cccc2Cl)cc1", "activity change": "active: -93.6%"}
{"smiles": "O=C(COC(=O)c1ccc(O)cc1)NCCCc1ccccc1", "activity change": "inconclusive: -42.8%"}
{"smiles": "Clc1ccc(Cn2ncc3c(N4CCCC4)ncnc32)cc1", "activity change": "inconclusive: -33.2%"}
{"smiles": "Cc1ccc(C(=O)CC(=O)COc2ccc(Cl)cc2)cc1", "activity change": "inactive: 0%"}
{"smiles": "CCCCCCCNC1=CC(=O)CC(c2ccccc2)C1", "note": "(stereo not drawn)", "activity change": "inactive: 63.3%"}
{"smiles": "O=C(CN1CCN(CC(=O)Nc2ccc(OCc3ccccc3)cc2)CC1)Nc1ccc(F)cc1", "activity change": "inactive: -26.9%"}
{"smiles": "COc1cccc(CNC(=O)[C@@H]2CCCN2C(=O)[C@H]2CCCCN2C(=O)c2c(F)cccc2F)c1", "activity change": "inactive: -0.373%"}
{"smiles": "CCN1/C(=C/c2cc[n+](C)cc2)C=Cc2cc(C)ccc21", "activity change": "active: -62.7%"}
{"smiles": "O=C(NN=Cc1cccc2ccccc12)C1CC1", "activity change": "inactive: 11.5%"}
{"smiles": "COc1ccc2c(c1)[C@H]1[C@H](CO2)[C@H](c2ccccc2)[C@]2(C)C(=O)Nc3ccc(F)cc3C(=O)N12", "activity change": "active: -57.1%"}
{"smiles": "C[C@H]1CN([C@@H](C)CO)C(=O)CCCn2nncc2CO[C@H]1CN(C)C(=O)c1cc(-c2ccccc2)on1", "activity change": "inactive: -1.43%"}
{"smiles": "O=C1CCC(/C=C/c2ccccc2)=NN1Cc1ccc(Cl)c(Cl)c1", "activity change": "inconclusive: -39%"}
{"smiles": "COc1ccc(Br)cc1/C=N/n1nnnc1N", "activity change": "inconclusive: -30.6%"}
{"smiles": "CCOC(=O)CNC(=O)CSc1nnc(Cn2c(=O)sc3ccccc32)n1-c1ccccc1C", "activity change": "active: -93.8%"}
{"smiles": "COc1cccc(/C=C/C(=O)OCC(=O)Nc2cccc(S(=O)(=O)NC3=NCCCCC3)c2)c1", "activity change": "inconclusive: -41.5%"}
{"smiles": "OC(c1ccccc1)(c1nc(-c2cc(F)cc(F)c2)cs1)C(F)(F)F", "note": "(stereo not drawn)", "activity change": "inconclusive: -32.3%"}
{"smiles": "Cc1ccc(-n2c(C)cc(C(=O)COc3c(CO)cc(F)cc3CO)c2C)cc1C", "activity change": "inconclusive: -48.4%"}
{"smiles": "Cc1cc([N+](=O)[O-])cnc1N1CCOCC1", "activity change": "inconclusive: -41.1%"}
{"smiles": "CCC(C)Oc1ccc(C(=O)Nc2ccc(CN3CCOCC3)cc2)cc1", "note": "(stereo not drawn)", "activity change": "inconclusive: -39.7%"}
{"smiles": "c1ccc(CN2CCC(Nc3nc(-c4ccccc4)nc4ccccc34)CC2)cc1", "activity change": "active: -52%"}
{"smiles": "Cc1cc(O)c(C(=O)/C=C/c2ccccc2O)c(=O)o1", "activity change": "inconclusive: -34.4%"}
{"smiles": "Cc1cc(OC(=O)c2cc(C(F)(F)F)cc(C(F)(F)F)c2)c([N+](=O)[O-])c(=O)[nH]1", "activity change": "inactive: 24.9%"}
{"smiles": "O=C1CCC[C@@H]2C[C@@]3(C[C@@H]4CCN1[C@H]24)Nc1cc([N+](=O)[O-])ccc1NC3=NC1CCCCC1", "activity change": "inactive: -10.9%"}
{"smiles": "CCOC(=O)c1sc(NC(=O)c2ccc(C)s2)cc1C", "activity change": "inconclusive: -34.8%"}
{"smiles": "C=CCC[C@H](Cc1ccc(F)cc1)C(=O)OC[C@H](Cc1c[nH]c2ccccc12)NC(=O)[C@@H](CC=C)CC(=O)N(CCO)Cc1ccccc1", "activity change": "inconclusive: -49.4%"}
{"smiles": "C=C(C)C(=O)N1CC2(CC(c3cccc(NC(=O)CC(c4ccccc4)c4ccccc4)c3)=NO2)C[C@H]1C(N)=O", "note": "(stereo partly drawn)", "activity change": "inconclusive: -32.8%"}
{"smiles": "COc1ccc(N/N=C(/C)c2cnnc(-c3ccccc3)n2)cc1", "activity change": "inactive: 11.3%"}
{"smiles": "COc1cccc(Cn2cnc3c(NS(=O)(=O)c4cccc(Cl)c4Cl)c(C)c(C)cc32)c1", "activity change": "inconclusive: -45.4%"}
{"smiles": "Cc1cccc(C)c1NC1=NCCCCC1", "activity change": "inactive: -1.34%"}
{"smiles": "O=C(CSC(=S)N1CCOCC1)Nc1ccc(S(=O)(=O)Nc2ncccn2)cc1", "activity change": "inconclusive: -48.6%"}
{"smiles": "O=C(NC(=S)NN1CCOCC1)c1cc(Br)ccc1Cl", "activity change": "inactive: 5.63%"}
{"smiles": "COCCn1c(SCc2cccc([N+](=O)[O-])c2)nc2ccccc2c1=O", "activity change": "inconclusive: -46.3%"}
{"smiles": "Cc1cccc(Nc2nc(N)nc(CN3CCN(c4ccc(F)cc4)CC3)n2)c1", "activity change": "inconclusive: -30.9%"}
{"smiles": "COc1ccc(OCC(=O)N2CCN(S(=O)(=O)c3ccc4c(c3)OCCO4)CC2)cc1", "activity change": "inconclusive: -46.3%"}
{"smiles": "CC(C)(C)SCCNC(=O)/C=C/c1cccc([N+](=O)[O-])c1", "activity change": "inactive: -13.8%"}
{"smiles": "CCn1c2c(c3cc(OCC(C)C)ccc31)CCCC2=O", "activity change": "inconclusive: -49.1%"}
{"smiles": "CCN1C(=O)[C@H]2[C@@H](c3ccc(-c4ccc(OC)cc4)cc3)N3CCCC[C@@]3(C(=O)OC)[C@H]2C1=O", "activity change": "inconclusive: -39.1%"}
{"smiles": "CC(C)c1ccc(Nc2nnns2)cc1", "activity change": "inconclusive: -30%"}
{"smiles": "CCOC(=O)c1ccccc1NC(=O)COC(=O)c1cc([N+](=O)[O-])ccc1N1CCOCC1", "activity change": "inconclusive: -41.6%"}
{"smiles": "COc1cc(NC(=O)CN(c2ccc(C)cc2)S(=O)(=O)c2c(C)nn(C)c2C)cc(OC)c1", "activity change": "inconclusive: -34.4%"}
{"smiles": "CCOC(=O)C1CCN(C(=O)Cn2cnc3sc(C)c(S(=O)(=O)N4CCC(C)CC4)c3c2=O)CC1", "activity change": "inactive: -9.85%"}
{"smiles": "COc1cc(/C=C/C(=O)OCC(=O)NC(=O)NC(C)C)cc(S(=O)(=O)N2CCc3ccccc32)c1OC", "activity change": "inconclusive: -43.8%"}
